Measurements from the supplement of paper PMC3334620.
The full ranking holds about 33,000 sequences; the median of “E-score (-0.5 to 0.5)” is about -0.041, and the highest 2% start at about 0.37. This is one part of the list.

Target: T1, Ecm22 (UniProt Q05958)
T1 sequence: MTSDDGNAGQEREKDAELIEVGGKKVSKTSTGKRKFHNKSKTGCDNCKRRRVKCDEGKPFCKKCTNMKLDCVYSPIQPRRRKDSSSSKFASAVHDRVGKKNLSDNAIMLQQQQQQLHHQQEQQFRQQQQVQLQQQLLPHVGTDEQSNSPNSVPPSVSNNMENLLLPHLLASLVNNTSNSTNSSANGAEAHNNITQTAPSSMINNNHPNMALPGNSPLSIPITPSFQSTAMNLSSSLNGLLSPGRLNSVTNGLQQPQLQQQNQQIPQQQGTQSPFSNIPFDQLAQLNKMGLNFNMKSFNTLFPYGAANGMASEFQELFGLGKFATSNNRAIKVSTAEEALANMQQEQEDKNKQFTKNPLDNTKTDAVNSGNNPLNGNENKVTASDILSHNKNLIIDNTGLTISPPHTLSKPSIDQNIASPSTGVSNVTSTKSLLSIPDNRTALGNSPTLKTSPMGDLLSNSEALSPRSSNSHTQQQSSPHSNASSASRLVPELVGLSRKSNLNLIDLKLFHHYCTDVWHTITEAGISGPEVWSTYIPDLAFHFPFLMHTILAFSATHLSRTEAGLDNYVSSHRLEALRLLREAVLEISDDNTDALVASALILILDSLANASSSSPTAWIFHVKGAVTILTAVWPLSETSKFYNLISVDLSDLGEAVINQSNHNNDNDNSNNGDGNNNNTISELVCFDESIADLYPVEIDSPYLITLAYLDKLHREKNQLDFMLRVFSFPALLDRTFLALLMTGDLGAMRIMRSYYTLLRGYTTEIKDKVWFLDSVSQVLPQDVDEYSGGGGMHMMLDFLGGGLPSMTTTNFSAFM
Assay: PBM E-score (8-mer binding enrichment) (E-score (-0.5 to 0.5)); higher = stronger / more preferred TF binding; most listed sequences are background and not binding sites
Conditions: protein concentration: 200 nM; construct: GST-full length
Summary of the method: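 Yeast transcription factors, full-length or as DNA-binding domains, were expressed with a GST tag using PURExpress in vitro transcription/translation. At about 100-200 nM they were applied to universal all-10-mer Agilent arrays, double-stranded by primer extension on fresh or once-stripped slides. Fluorescent anti-GST detected bound protein, and masliner normalised the scans. E-scores for ungapped eight-base words, pooled with reverse complements, came from the Universal PBM Analysis Suite.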

Sequence	PBM E-score
GCCGGTGA	-0.168
AATCGCCG	0.121
CCGACACA	-0.00241
ATTATATA	0.134
AGGCCGCA	-0.0419
TCGCTAAA	0.34
AGGTCCAT	-0.239
CACTCACA	-0.0277
ACTGTTCA	-0.159
AGTAACGA	0.311
AGGAACTC	-0.0377
GACACATA	-0.0529
AAGCGACA	0.23
CGCTTGAG	-0.0735
AACGCAGC	0.113
AAGGTAGT	-0.0862
AGATAAAA	-0.0871
AATTTCGT	0.29
GCATGTAA	-0.053
AGCCTGAC	-0.171
ACCTCTCT	-0.148
ATCAGGCA	-0.213
GATACCCA	-0.0895
AACGCTCC	-0.155
GACCCACC	-0.194

Sequence	PBM E-score
AAAGTGAT	-0.0608
CACATTAA	-0.141
TAGATCAA	0.107
CAATCTGG	-0.231
GCACGATA	0.0343
AAAGCGTA	0.146
ACTAAAGC	-0.0525
ACTCATCC	-0.0429
AAACAGCC	-0.158
ATGATTGG	-0.233
GCTACGAA	0.429
CGTCCGGA	-0.21
ACGTCTAT	-0.142
CCTGGGCA	-0.254
ATTAAGCG	0.266
CACGTATA	0.386
CATCGGAC	0.0621
AAATCTGA	-0.168
AGCTATGA	0.0234
GCGGTGAA	-0.0243
TAACCTCA	-0.0217
GGCAAACC	-0.181
AGCGTTCA	-0.121
CATACCTC	0.0614
GGACTCCA	-0.272

Sequence	PBM E-score
AGAAAACG	0.16
CCCCATGA	-0.278
ACCATCCA	-0.275
CCATCAAG	-0.0429
GACTGGGA	-0.145
GACAGGGC	0.0528
ATAGCGAG	0.158
CTCCCAAC	-0.151
AGGTCAAA	-0.147
CTCGTCGC	0.174
ACTCAGCA	-0.236
GGTTGCTA	-0.165
ACCTGTGC	-0.138
GTCTTCGA	-0.0558
CGAGTGAG	0.2
TCTCCAGA	-0.228
AAGAGTGA	-0.0955
CTACCAAA	-0.148
AGAACACT	0.09
GCGTCATA	0.103
AGGCTTGG	-0.142
AACCCGCA	0.0467
AGAAAGTC	0.0488
ATAAATCG	0.139
GAGTCGAC	-0.0529

Sequence	PBM E-score
ACATAGTC	-0.108
ACTCTCAG	-0.239
CGTCGACA	-0.0337
ACCCTGCT	-0.133
GACAAGCC	0.0233
GGTCAGAA	-0.0884
CCGGAAAC	-0.103
GGAATTAA	0.026
CATACAAG	-0.122
ATGTGTTG	0.114
CTCCGAAC	0.0277
CCATGAGC	-0.315
AACAGGGG	-0.191
GCTTCGCA	0.193
AGGGCAAG	-0.164
ATACGATG	0.472
GAGCGAGC	0.354
ACGTATGG	0.267
ACTGTCTA	0.0316
ACTTCAAG	-0.232
CACAGCCC	-0.306
GTGAAGGA	-0.0823
CAAACCGA	0.199
ATGAACAC	0.0536
GCAAAGAA	0.0167

Sequence	PBM E-score
AAAAATTT	0.058
ACGAAAAT	0.365
AGCGGTAA	-0.0814
ATAGGCAC	-0.311
ACTATACG	0.463
AGTTAGCA	0.0106
ACCAGAGG	-0.206
ACAATAGG	0.0119
AATAAAGA	-0.0211
AATGCATA	0.114
AGTGCGAG	0.186
AGAGGCCA	-0.203
GACTCCTC	-0.0636
CCGGGATC	0.0897
TCGTCTAA	0.15
AGCCCGAT	-0.0368
TGTCCCAA	-0.146
ATCGTGGG	-0.0631
CGTATCTC	0.318
ATAGTCTG	-0.113
AACCATCA	-0.0958
ATTCATAC	0.161
ACAACAGG	-0.0852
GATTTTAA	0.0106
ATGCAAAT	-0.0229

Sequence	PBM E-score
ATGAGTGC	0.143
CTAAAAAA	-0.103
AAAATCAG	0.106
CAAGGTAA	0.0741
CTCTTATC	0.0588
CTTATCAA	-0.0509
ATGGATTG	0.0804
GCTCTACA	0.0047
AGTACTAC	0.105
AGAGAAGC	-0.0688
GGCTGGCA	-0.393
ACGATTGG	0.138
CCATCTCG	0.105
CTGGTGTA	-0.139
AGCGGTTA	0.0276
ATGCCTTC	-0.172
AGGGAGCG	0.123
CATACCGG	-0.216
ATATTCAT	0.0445
ACCGTCTC	0.0168
CCGTTGAC	-0.0148
ACCGACCA	0.234
ATCAAGGA	-0.0382
AAAGATCA	-0.0296
ACACCTAC	-0.181

Sequence	PBM E-score
CCTTTCCC	-0.145
ATGTAAAA	-0.0201
ACTCAAGG	-0.173
GTACAAAA	0.21
TACCCCGA	-0.041
ATTTCACC	0.0803
CAACGTTC	0.152
CTTTCCTA	-0.392
AGGTTGGA	-0.038
CTGTTGAA	-0.0551
ATCGTGTG	0.0603
ATTTTGGC	0.0528
ACTGGTTA	-0.121
ACTTTAAC	0.0534
ACAGGCCA	-0.197
ATATCCCA	-0.00174
CGTCAATC	-0.0546
CAGTTGTA	-0.0781
AGAAGTAG	-0.0963
GATTGCGC	-0.103
TCAGTCAA	-0.0947
CAGGGCGC	-0.267
ACAGCCAA	-0.0999
GGCGACAA	-0.164
CGCGGAAC	0.279

Sequence	PBM E-score
ACAAGGGC	-0.264
AGTGTAAG	-0.154
CCCTAAGG	-0.312
AGCGGAGA	-0.0619
ACTATATC	0.057
GTCGGATA	0.308
CATAGCTA	-0.186
CGAGGCCA	0.196
ATGGAGAG	-0.316
AGGCGACG	0.00428
GGGGACCC	-0.226
AATCTCCT	-0.279
CCCGTGAC	-0.208
ATGTGCCA	-0.179
CCTATCCC	0.0555
AATTACAG	0.136
CTTAAAGC	0.0218
CCACTGGA	-0.185
ATCCTGAG	0.0109
AACGTGAT	-0.0739
CCGATTGA	0.105
CCATGGCG	-0.127
AGACGCCC	-0.00408
GCGCCACA	-0.157
AAATTTTA	0.00096

Sequence	PBM E-score
CCAAAATC	0.00217
CTTCACGC	-0.0333
CACAGTGC	-0.162
ATCCACTA	0.0408
CTCCCGAA	-0.0815
AAAATGCA	-0.279
AACTCAGA	-0.0918
CCTTTCCG	-0.124
GCCTTTCC	-0.146
GCATATCA	0.0456
AAACCAAT	-0.0653
GCGTTAAA	0.193
GGAAACCC	-0.0043
AACGTATT	0.229
GGGGAGAC	-0.172
AGCAGTAT	0.0123
CAACATGA	0.0013
CAGCTAAA	0.116
CCGTTTCC	0.143
CGTCCCTC	-0.126
AAGTGGCT	-0.096
GCAGACTA	-0.184
CATGTTCG	0.153
CCGAAAGC	-0.111
TAACGTGA	-0.142

Sequence	PBM E-score
GGGATGGA	-0.175
CGAAAAAA	0.205
ATCCCAGC	-0.0508
ACGCTGCG	-0.00203
CTTACCTC	-0.189
CAAGGCCG	-0.0953
AAGTAGTC	-0.111
TCAGAGGA	-0.129
CGCTGCAG	-0.0938
GGCATAGA	-0.0188
AGCCACTC	-0.0524
GATGTTAC	0.0255
GGACTTAA	-0.112
AAAGTTCG	0.155
CGAACCAA	0.0945
AAAATCAC	-0.0192
CCCGCGAG	0.115
AGTCAAGA	-0.0711
AAGGTGAA	-0.06
AACCGTAG	0.104
AAAATTTT	-0.127
ATTTGCTA	-0.262
GTAGAAAC	0.0897
CCTCAACA	-0.0357
TCCCAACA	-0.164

Sequence	PBM E-score
CGCTCAAG	0.114
CGAAGCAA	0.107
ACCCAGTC	-0.172
CACACTGC	-0.212
CAGTTCCA	-0.0209
AGTCCTAT	-0.24
CACCATAA	-0.0782
ATCATTCG	0.178
TACCAGCA	0.0478
GGGAGCAC	-0.129
GTCTAGGA	-0.141
ACCTGTGA	-0.00512
AGGTGTGG	-0.111
GTATTTTA	0.126
AGATGGCG	-0.102
TCTGAGAA	-0.0868
ACTTATAA	0.036
ATAAGTCA	-0.148
CAAGCCCG	-0.0497
AGTAGCAG	-0.00574
ATCGCGAG	0.261
CCAATACA	-0.159
GATTGTAC	0.128
GAAGTTAC	0.122
TCATGAGA	0.0162

Sequence	PBM E-score
CATGACGA	0.0488
CAAAGGAG	-0.155
GACGGCCA	-0.244
AAACGTGT	0.139
ATAAAGAG	-0.121
CACTGATG	-0.201
GCGCCGTA	0.346
CCCTGCCC	-0.24
ATTGCATG	-0.0321
GCTTTGTA	0.0419
CAAGCCGC	-0.0639
AACGATCC	0.307
AGTAAATG	-0.0697
ACTTTGAG	-0.194
ACGGTACA	0.155
AAGGGGGT	-0.292
AATGGTCG	0.101
ATCCCGTC	-0.0694
CAGTCCTC	-0.424
AAGAGCCA	0.00838
GACACATC	-0.0159
CCTTTTAA	-0.0729
CTGCGATA	0.0863
GGGATGTA	-0.0679
AAGAGACC	-0.164

Sequence	PBM E-score
ATCCAATG	-0.223
CTCATGGA	-0.205
ACGACCGA	0.394
GTATTGAC	-0.0185
GGGGAAAC	-0.0478
GACACTCC	-0.0444
CCAGGAGC	-0.0697
CAATCGAA	0.0253
CAAGCCCA	-0.195
GTTTCTCA	-0.0183
TAGAGGCA	-0.0942
AAGCTGGA	0.0238
CACCATCA	-0.104
AACTGGTG	-0.114
AGATACGG	0.28
TAAAGGGA	-0.0675
AAGTCCGA	0.00285
GATATAGC	0.196
CCAAATAG	-0.0461
CGGTGTAC	0.295
CATAAATA	-0.00296
CTGAAAAC	-0.0564
TCGAACGA	0.373
ATACTGAC	0.0254
GAGGTATC	-0.0143

Sequence	PBM E-score
AGTATATA	0.341
GCGATGGA	0.0944
AACGAGCC	0.442
AGGACTCC	-0.245
AGCTTGCC	-0.118
CGCCCCAC	-0.0585
CCACTAGA	-0.31
CCCACGAG	-0.163
CCGGCTAC	-0.0157
AGACTGTC	-0.103
ACGTGGAG	0.068
CCTCTTCG	0.111
ATGCCCTA	-0.201
CTTGCCTC	0.111
CTGACGCC	-0.09
CTGCCCCC	-0.264
AAAGGTAG	-0.237
ACCACCTA	-0.204
ACGCGGTC	0.0261
